Measured values reported in paper PMC7997005, “Dynamic interplay between the co-opted Fis1 mitochondrial fission protein and membrane contact site proteins in supporting tombusvirus replication” (PLoS Pathogens, 2021).
Like-named read-outs stand apart in the source and are kept apart here. Results are given in words; binding and its absence hold for the method and conditions named. For part of these data: In cells and extracts the contact can be indirect. Some entries that bind do so weakly or less than the wild type. For part of these data: Sequences can lack the tags named with a protein.

Amino acid sequences for entries named in this document (tags omitted).
UniProt Q9M1J1: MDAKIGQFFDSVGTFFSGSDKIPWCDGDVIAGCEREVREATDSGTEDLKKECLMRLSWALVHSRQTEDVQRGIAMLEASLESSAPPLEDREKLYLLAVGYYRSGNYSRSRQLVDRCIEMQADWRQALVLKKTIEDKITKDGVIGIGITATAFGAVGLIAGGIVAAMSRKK

Assays:
[1] = target: T1, TBSV Flag-p33 replication protein (tomato bushy stunt virus (TBSV)) (UniProt P15962); assay: co-IP; Flag-affinity purification of Flag-tagged replication proteins (TBSV Flag-p33 + Flag-p92pol or CIRV Flag-p36 + Flag-p95pol) from the detergent-solubilized membrane fraction of yeast; samples cross-linked with formaldehyde; co-purified His6-tagged proteins detected with anti-His antibody; WT, fis1Δ, Fis1p- or Dnm1-ZZ-over-expressing yeast; cycloheximide time course
T1 sequence: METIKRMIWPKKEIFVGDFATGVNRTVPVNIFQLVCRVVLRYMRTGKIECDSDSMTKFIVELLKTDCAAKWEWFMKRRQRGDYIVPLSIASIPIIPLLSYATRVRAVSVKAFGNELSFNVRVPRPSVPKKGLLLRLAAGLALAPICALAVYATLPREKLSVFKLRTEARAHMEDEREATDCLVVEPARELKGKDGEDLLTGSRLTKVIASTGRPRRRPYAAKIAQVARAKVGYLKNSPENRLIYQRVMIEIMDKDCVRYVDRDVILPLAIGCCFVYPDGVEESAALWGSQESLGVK

[2] = target: T2, TBSV p33 replication protein, MYTH bait (tomato bushy stunt virus (TBSV)) (UniProt P15962); assay: two-hybrid; split-ubiquitin-based membrane yeast two-hybrid assay (MYTH) in yeast; bait (TBSV p33 or yeast Fis1p) co-expressed with NubG prey proteins
T2 sequence: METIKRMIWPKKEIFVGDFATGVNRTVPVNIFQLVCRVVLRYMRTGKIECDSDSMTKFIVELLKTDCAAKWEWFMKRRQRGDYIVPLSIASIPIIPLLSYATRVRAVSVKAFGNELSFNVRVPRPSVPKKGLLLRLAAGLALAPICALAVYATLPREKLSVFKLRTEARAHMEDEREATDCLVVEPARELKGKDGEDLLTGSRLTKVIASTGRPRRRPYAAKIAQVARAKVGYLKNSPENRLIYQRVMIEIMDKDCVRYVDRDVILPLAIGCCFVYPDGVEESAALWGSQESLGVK

[3] = target: T3, TBSV p33-cYFP replication protein (tomato bushy stunt virus (TBSV)) (UniProt P15962); assay: split reporter; BiFC (nYFP/cYFP fusions, 35S promoter, co-agroinfiltration) in N. benthamiana leaves infected with TBSV or CIRV; confocal microscopy; includes TRV-MBP control plants
T3 sequence: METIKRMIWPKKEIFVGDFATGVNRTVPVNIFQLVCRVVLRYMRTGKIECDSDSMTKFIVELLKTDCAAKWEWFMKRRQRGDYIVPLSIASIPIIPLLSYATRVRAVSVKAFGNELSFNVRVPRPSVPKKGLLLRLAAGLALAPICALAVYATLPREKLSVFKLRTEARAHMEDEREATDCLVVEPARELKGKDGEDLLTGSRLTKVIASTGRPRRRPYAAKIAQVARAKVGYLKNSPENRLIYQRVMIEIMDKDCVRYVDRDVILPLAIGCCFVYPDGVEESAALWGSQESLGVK

[4] = target: T1, TBSV Flag-p33 replication protein (tomato bushy stunt virus (TBSV)); assay: co-IP; Flag-affinity purification of Flag-tagged replication proteins (TBSV Flag-p33 + Flag-p92pol or CIRV Flag-p36 + Flag-p95pol) from the detergent-solubilized membrane fraction of yeast; samples cross-linked with formaldehyde; co-purified His6-tagged proteins detected with anti-His antibody; WT, fis1Δ, Fis1p- or Dnm1-ZZ-over-expressing yeast; cycloheximide time course; remark: listed apart in the source
[5] = target: T4, yeast Fis1p, MYTH bait (S. cerevisiae) (UniProt P40515); assay: two-hybrid; split-ubiquitin-based membrane yeast two-hybrid assay (MYTH) in yeast; bait (TBSV p33 or yeast Fis1p) co-expressed with NubG prey proteins
T4 sequence: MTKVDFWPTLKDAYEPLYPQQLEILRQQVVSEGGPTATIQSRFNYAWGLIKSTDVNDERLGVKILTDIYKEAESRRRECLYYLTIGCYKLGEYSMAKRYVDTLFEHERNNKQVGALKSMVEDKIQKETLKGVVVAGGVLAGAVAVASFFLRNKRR

His6-Fis1p with deletion of 92 N-terminal amino acids (from UniProt P40515 93-155) (domain or fragment)
binding [1]: binds weakly

His6-AtFis1A (from UniProt Q9M1J1 1-170)
binding [1]: binds

Arabidopsis Fis1A, MYTH prey (from UniProt Q9M1J1 1-170)
binding [2]: binds

His6-Fis1-ΔN54 (from UniProt P40515 55-155) (domain or fragment)
binding [1]: binds weakly

nYFP-AtFis1A (from UniProt Q9M1J1 1-170)
binding [3]: binds

His6-Fis1-ΔC25 (from UniProt P40515 1-130) (domain or fragment)
binding [1]: binds

Fis1-ΔC25, MYTH prey (from UniProt P40515 1-130) (domain or fragment)
binding [2]: binds

Fis1p with deletion of 92 N-terminal amino acids, MYTH prey (from UniProt P40515 93-155) (domain or fragment)
binding [2]: binds weakly

Fis1-ΔN54, MYTH prey (from UniProt P40515 55-155) (domain or fragment)
binding [2]: binds weakly

B1: yeast Fis1p mitochondrial fission 1 protein, MYTH prey (protein, UniProt P40515 1-155)
chain: MTKVDFWPTLKDAYEPLYPQQLEILRQQVVSEGGPTATIQSRFNYAWGLIKSTDVNDERLGVKILTDIYKEAESRRRECLYYLTIGCYKLGEYSMAKRYVDTLFEHERNNKQVGALKSMVEDKIQKETLKGVVVAGGVLAGAVAVASFFLRNKRR
binding [2]: binds

B2: Arabidopsis Fis1B, MYTH prey (protein, UniProt Q94CK3 1-167)
chain: MDAAIGKVFDSVSDFFSGAASASADEFPLCDSDIISGCEKELAEAQDEGRKKECIMRLSWALVHSKMPSDIQRGIAMLEALVVNDTSAMKLREKLYLLALGYYRSGDFSRSRDCIERCLEVEPESGQAQALKKAIEDRIVKDGVIGVGIAVTAVGVVAGIAAAILRS
binding [2]: binds

B3: nYFP-AtFis1B (protein, UniProt Q94CK3 1-167)
chain: MDAAIGKVFDSVSDFFSGAASASADEFPLCDSDIISGCEKELAEAQDEGRKKECIMRLSWALVHSKMPSDIQRGIAMLEALVVNDTSAMKLREKLYLLALGYYRSGDFSRSRDCIERCLEVEPESGQAQALKKAIEDRIVKDGVIGVGIAVTAVGVVAGIAAAILRS
binding [3]: binds

B4: yeast His6-Scs2p VAP protein (protein, UniProt P40075 1-244)
chain: MSAVEISPDVLVYKSPLTEQSTEYASISNNSDQTIAFKVKTTAPKFYCVRPNAAVVAPGETIQVQVIFLGLTEEPAADFKCRDKFLVITLPSPYDLNGKAVADVWSDLEAEFKQQAISKKIKVKYLISPDVHPAQNQNIQENKETVEPVVQDSEPKEVPAVVNEKEVPAEPETQPPVQVKKEEVPPVVQKTVPHENEKQTSNSTPAPQNQIKEAATVPAENESSSMGIFILVALLILVLGWFYR
binding [4]: binds

B5: yeast Scs2p VAP protein, MYTH prey (protein, UniProt P40075 1-244)
chain: MSAVEISPDVLVYKSPLTEQSTEYASISNNSDQTIAFKVKTTAPKFYCVRPNAAVVAPGETIQVQVIFLGLTEEPAADFKCRDKFLVITLPSPYDLNGKAVADVWSDLEAEFKQQAISKKIKVKYLISPDVHPAQNQNIQENKETVEPVVQDSEPKEVPAVVNEKEVPAEPETQPPVQVKKEEVPPVVQKTVPHENEKQTSNSTPAPQNQIKEAATVPAENESSSMGIFILVALLILVLGWFYR
binding [5]: binds

B6: yeast His6-Fis1p (natural protein, S. cerevisiae, UniProt P40515 1-155, looked up)
chain: MTKVDFWPTLKDAYEPLYPQQLEILRQQVVSEGGPTATIQSRFNYAWGLIKSTDVNDERLGVKILTDIYKEAESRRRECLYYLTIGCYKLGEYSMAKRYVDTLFEHERNNKQVGALKSMVEDKIQKETLKGVVVAGGVLAGAVAVASFFLRNKRR
notes: Fis1p mitochondrial fission 1 protein, S. cerevisiae; also called HisScFis1; source: yeast, expressed from a plasmid, in detergent-solubilized membrane fraction
binding [4]: binds

B7: Arabidopsis AtVAP27-1, MYTH prey (protein, UniProt Q8VZ95 1-256)
chain: MSNIDLIGMSNRDLIGMSNSELLTVEPLDLQFPFELKKQISCSLYLTNKTDNNVAFKVKTTNPKKYCVRPNTGVVLPRSTCEVLVTMQAQKEAPSDMQCKDKFLLQGVIASPGVTAKEVTPEMFSKEAGHRVEETKLRVTYVAPPRPPSPVHEGSEEGSSPRASVSDNGHGSEFSFERFIVDNKAGHQENTSEARALITKLTEEKQSAIQLNNRLQRELDQLRRESKKSQSGGIPFMYVLLVGLIGLILGYIMKRT
binding [5]: binds

B8: yeast His6-Sac1p (enzyme, S. cerevisiae, UniProt P32368 1-623, looked up)
chain: MTGPIVYVQNADGIFFKLAEGKGTNDAVIHLANQDQGVRVLGAEEFPVQGEVVKIASLMGFIKLKLNRYAIIANTVEETGRFNGHVFYRVLQHSIVSTKFNSRIDSEEAEYIKLLELHLKNSTFYFSYTYDLTNSLQRNEKVGPAASWKTADERFFWNHYLTEDLRNFAHQDPRIDSFIQPVIYGYAKTVDAVLNATPIVLGLITRRSIFRAGTRYFRRGVDKDGNVGNFNETEQILLAENPESEKIHVFSFLQTRGSVPIYWAEINNLKYKPNLVLGENSLDATKKHFDQQKELYGDNYLVNLVNQKGHELPVKEGYESVVHALNDPKIHYVYFDFHHECRKMQWHRVKLLIDHLEKLGLSNEDFFHKVIDSNGNTVEIVNEQHSVVRTNCMDCLDRTNVVQSVLAQWVLQKEFESADVVATGSTWEDNAPLLTSYQNLWADNADAVSVAYSGTGALKTDFTRTGKRTRLGAFNDFLNSASRYYQNNWTDGPRQDSYDLFLGGFRPHTASIKSPFPDRRPVYIQLIPMIICAALTVLGATIFFPKDRFTSSKNLLYFAGASIVLALSTKFMFKNGIQFVNWPKLVDVGFLVVHQTHDKEQQFKGLKYAQSPKFSKPDPLKRD
notes: Sac1p PI4P phosphatase, S. cerevisiae; source: yeast, expressed from a plasmid, in detergent-solubilized membrane fraction
binding [4]: binds

B9: yeast Sac1p PI4P phosphatase, MYTH prey (enzyme, UniProt P32368 1-623)
chain: MTGPIVYVQNADGIFFKLAEGKGTNDAVIHLANQDQGVRVLGAEEFPVQGEVVKIASLMGFIKLKLNRYAIIANTVEETGRFNGHVFYRVLQHSIVSTKFNSRIDSEEAEYIKLLELHLKNSTFYFSYTYDLTNSLQRNEKVGPAASWKTADERFFWNHYLTEDLRNFAHQDPRIDSFIQPVIYGYAKTVDAVLNATPIVLGLITRRSIFRAGTRYFRRGVDKDGNVGNFNETEQILLAENPESEKIHVFSFLQTRGSVPIYWAEINNLKYKPNLVLGENSLDATKKHFDQQKELYGDNYLVNLVNQKGHELPVKEGYESVVHALNDPKIHYVYFDFHHECRKMQWHRVKLLIDHLEKLGLSNEDFFHKVIDSNGNTVEIVNEQHSVVRTNCMDCLDRTNVVQSVLAQWVLQKEFESADVVATGSTWEDNAPLLTSYQNLWADNADAVSVAYSGTGALKTDFTRTGKRTRLGAFNDFLNSASRYYQNNWTDGPRQDSYDLFLGGFRPHTASIKSPFPDRRPVYIQLIPMIICAALTVLGATIFFPKDRFTSSKNLLYFAGASIVLALSTKFMFKNGIQFVNWPKLVDVGFLVVHQTHDKEQQFKGLKYAQSPKFSKPDPLKRD
binding [5]: binds

B10: His6-AtFis1B (protein, UniProt Q94CK3 1-167)
chain: MDAAIGKVFDSVSDFFSGAASASADEFPLCDSDIISGCEKELAEAQDEGRKKECIMRLSWALVHSKMPSDIQRGIAMLEALVVNDTSAMKLREKLYLLALGYYRSGDFSRSRDCIERCLEVEPESGQAQALKKAIEDRIVKDGVIGVGIAVTAVGVVAGIAAAILRS
binding [4]: binds

B11: yeast His6-Osh6p (natural protein, S. cerevisiae, UniProt Q02201 1-448, looked up)
chain: MGSKKLTVGSDSHRLSKSSFSSNKSSHSATKDQPIDTDDIDEDDESGHNIILNIISQLRPGCDLTRITLPTFILEKKSMLERVTNQLQFPEFLLQAHSEKDPLKRFLYVMKWYLAGWHIAPKAVKKPLNPVLGEYFTAYWDLPNKQQAYYISEQTSHHPPECAYFYMIPESSIRVDGVVIPKSRFLGNSSAAMMDGSTVLQFLDIKDGNGKPEKYVLTQPNVYVRGILFGKMRIELGDHMIIKSPNFQADIEFKTKGYVFGTYDAIEGTVKDYDGNAYYEISGKWNDVMYLKDLKQPRSSPKVFLDTHKESPLRPKVRPLSEQGEYESRKLWKKVTDALAVRNHPVATEEKFQIEDHQRQLAKKRIEDGVEFHPKLFRRSKPGEDLDYCIYKNIPVDEDPEKQIRSILQIAPILPGQQFTDKFFIPAFEKIKSQKKMIENEKQNPAKQ
notes: source: yeast, expressed from a plasmid, in detergent-solubilized membrane fraction
binding [4]: binds

B12: yeast Osh6p oxysterol-binding protein, MYTH prey (protein, UniProt Q02201 1-448)
chain: MGSKKLTVGSDSHRLSKSSFSSNKSSHSATKDQPIDTDDIDEDDESGHNIILNIISQLRPGCDLTRITLPTFILEKKSMLERVTNQLQFPEFLLQAHSEKDPLKRFLYVMKWYLAGWHIAPKAVKKPLNPVLGEYFTAYWDLPNKQQAYYISEQTSHHPPECAYFYMIPESSIRVDGVVIPKSRFLGNSSAAMMDGSTVLQFLDIKDGNGKPEKYVLTQPNVYVRGILFGKMRIELGDHMIIKSPNFQADIEFKTKGYVFGTYDAIEGTVKDYDGNAYYEISGKWNDVMYLKDLKQPRSSPKVFLDTHKESPLRPKVRPLSEQGEYESRKLWKKVTDALAVRNHPVATEEKFQIEDHQRQLAKKRIEDGVEFHPKLFRRSKPGEDLDYCIYKNIPVDEDPEKQIRSILQIAPILPGQQFTDKFFIPAFEKIKSQKKMIENEKQNPAKQ
binding [5]: binds
